Data on 41 molecules can be found in PubChem BioAssay AID743255 (National Center for Advancing Translational Sciences (NCATS), 2014).

Out of some 390,000 compounds screened, about 910 (0.23%) were called active. Inconclusive results (about 5%) are left out. Calls come from the whole dose curve; as a rule, active = well fitted inhibition curve with a large enough effect; inconclusive = small, poorly fitted or top-dose-only effect; inactive = no such curve, though single readings can be large or run the other way. Only a part is listed here, and it is no random draw.
% is set by controls: 0 for no effect and ±100 for the full control effect; potency is the fitted concentration of half-maximal effect.

Chain of UniProt O94782 (O94782 whole entry, looked up): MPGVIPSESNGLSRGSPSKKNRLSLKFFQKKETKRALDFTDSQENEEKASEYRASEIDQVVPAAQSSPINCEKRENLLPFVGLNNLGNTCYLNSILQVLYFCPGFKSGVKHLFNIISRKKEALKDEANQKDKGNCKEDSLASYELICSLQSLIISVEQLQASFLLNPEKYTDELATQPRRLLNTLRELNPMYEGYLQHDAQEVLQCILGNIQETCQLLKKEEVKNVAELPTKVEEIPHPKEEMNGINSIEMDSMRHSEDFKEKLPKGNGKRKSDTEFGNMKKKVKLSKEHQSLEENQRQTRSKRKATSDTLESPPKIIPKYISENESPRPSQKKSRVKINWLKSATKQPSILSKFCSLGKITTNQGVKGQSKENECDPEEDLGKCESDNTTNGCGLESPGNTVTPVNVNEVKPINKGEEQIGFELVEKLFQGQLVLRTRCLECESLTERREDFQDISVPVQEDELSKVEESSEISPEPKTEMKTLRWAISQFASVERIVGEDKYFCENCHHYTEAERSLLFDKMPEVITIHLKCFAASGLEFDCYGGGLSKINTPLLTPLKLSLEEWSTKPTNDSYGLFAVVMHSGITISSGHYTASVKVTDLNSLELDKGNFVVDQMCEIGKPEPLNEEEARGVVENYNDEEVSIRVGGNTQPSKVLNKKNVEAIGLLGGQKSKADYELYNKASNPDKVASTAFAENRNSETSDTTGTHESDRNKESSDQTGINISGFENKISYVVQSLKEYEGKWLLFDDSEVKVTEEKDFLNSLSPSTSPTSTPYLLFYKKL

This experiment addresses Ubiquitin carboxyl-terminal hydrolase 1 (Homo sapiens) (UniProt O94782). The experiment in a line: Inhibitors of USP1/UAF1: Primary Screen. Note: nearly all actives have a fitted effect of over 60% in size. To be noted: recombinant USP1/UAF1, Ub-Rhodamine cleavage fluorescence; series mostly up to 57.1 µM; activity change, negative = inhibition: at the top concentration. The source says:
Deubiquitinating enzymes (DUBs) are a class of enzymes that can cleave isopeptide bond formed between the C-terminal carboxylate of ubiquitin and a lysine side-chain amino group on the target protein. Among them, ubiquitin specific proteases (USPs) constitute the largest DUB family. Human USPs are emerging as promising targets for pharmacological intervention because of their connection to a number of human diseases, including prostate, colon and breast cancer (1, 2), pediatric acute lymphoblastic leukemia (3), and familial cylindromatosis (4). The advantage of inhibiting USPs lies in the potential specificity of therapeutic intervention that can lead to better efficacy and reduce nonspecific side effects. In a collaboration between the University of Delaware and the NIH Chemical Genomics Center, a high-throughput screen assay was developed to screen for USP1/UAF1 inhibitors. This miniaturized assay has a fluorescent read-out and is used to screen the NIH Molecular Libraries Small Molecule Repository (MLSMR) in order to identify a small molecule that inhibits USP1. NIH Chemical Genomics Center [NCGC] NIH Molecular Libraries Probe Centers Network [MLPCN] MLPCN Grant: DA030552 Assay Submitter (PI): Zhihao Zhuang, University of Delaware 1. Priolo, C., et al. (2006) The isopeptidase USP2a protects human prostate cancer from apoptosis. Cancer Res 66, 8625-8632 2. Popov, N., et al. (2007) The ubiquitin-specific protease USP28 is required for MYC stability. Nat Cell Biol 9, 765-774 3. De Pitta, C., et al. (2005) A leukemia-enriched cDNA microarray platform identifies new transcripts with relevance to the biology of pediatric acute lymphoblastic leukemia. Haematologica 90, 890-898 4. Kovalenko, A., et al. (2003) The tumour suppressor CYLD negatively regulates NF-kappaB signalling by deubiquitination. Nature 424, 801-805
3 microliters of reagents (buffer in columns 3 and 4 as negative control and 1nM USP1/UAF1 complex in columns 1, 2, and 5-48) are dispensed into Greiner black solid bottom 1536-well assay plates. Compounds are then transferred via Kalypsys pin tool equipped with 1536-pin array (10nl slotted pins, V&P Scientific, San Diego, CA). Following an incubation step of 15 min at room temperature, 1ul of Ub-Rho substrate (150nM final concentration) is added to initiate the reaction. The plates are immediately centrifuged at 1000 rpm for 15 seconds, and subsequently transferred to a ViewLux high-throughput CCD imager (PerkinElmer) wherein kinetic measurements of fluorescence are acquired using 480 nm excitation/540 nm emission filter set (6 reads every 60 seconds, see Table 1). All reagents are diluted in an assay buffer consisting of 50mM HEPES (pH 7.8), 0.5mM EDTA, 0.1 mg/ml BSA, 1mM TCEP, and 0.01% Tween-20.
Turning to `COc1ccc2c(c1OC)C(=O)OC2C1c2cc3c(cc2CCN1C)OCO3` (stereo unspecified), the “activity change, negative = inhibition” value is inactive: -20.3%.
Same read-out and setting: with `C[C@H](CO)N1C[C@H](C)[C@H](CN(C)C(=O)Oc2cccc3ccccc23)OCc2cnnn2CCCC1=O` the figure was inactive: -19.1%; with `O=C1NC(=O)N(c2ccc3c(c2)OCO3)C(=O)/C1=C\c1ccc(N2CCCCC2)o1`, inactive: -23.8%.
Same read-out and setting: with `Cc1ccc(OC(=O)N(C)C[C@H]2OCc3cnnn3CCCC(=O)N([C@H](C)CO)C[C@@H]2C)cc1` the figure was inactive: 0.259%.
`COCCCn1c(N)c(C(=O)NCCC(C)C)c2nc3ccccc3nc21`: the Potency was active: 22.4 µM.
As to `C[C@@H]1CN([C@@H](C)CO)C(=O)CCCn2nncc2CO[C@H]1CN(C)C(=O)Oc1cccc2ccccc12`, the “activity change, negative = inhibition” value was inactive: 0.941%.
As to `C[C@]12CCC3C(CC[C@H]4C[C@H](O)CC[C@]34C)C1C[C@H](O)[C@@H]2O` (stereo partly specified), the “activity change, negative = inhibition” value is inactive: -16%.
With `O=C1NC(=S)N(c2ccc(F)cc2)C(=O)/C1=C\c1ccoc1`, the Potency was active: 28.2 µM.
In the case of `COc1ccc(OC(=O)N(C)C[C@@H]2OCc3cnnn3CCCC(=O)N([C@@H](C)CO)C[C@H]2C)cc1`, the “activity change, negative = inhibition” value is inactive: -28.3%.
Same read-out and setting: with `C[C@]12CCC3C(CC[C@H]4C[C@@H](O)CC[C@]34C)C1C[C@@H](O)[C@H]2O` (stereo partly specified) the figure was inactive: -16%.
On the same count and under the same terms, as for `CC(=O)C1CCC2C3CCC4CC(O)CCC4(C)C3CCC12C` (stereo unspecified), the figure is inactive: -27.5%.
For `O=C(/C=C/c1c[nH]c2ccccc12)c1c(O)n(CCc2ccccc2)c(=O)[nH]c1=O`, the Potency was active: 25.1 µM.
Turning to `C[C@H](CO)N1C[C@H](C)[C@@H](CN(C)C(=O)Oc2cccc3ccccc23)OCc2cn(nn2)CCCC1=O`, the “activity change, negative = inhibition” value is inactive: 9.42%.
Still for that read-out and setting: as for `COc1ccccc1N1CCN(C(=O)CCS(=O)(=O)c2ccc3c(c2)oc(=O)n3C)CC1`, the figure is inactive: -22.4%.
For `ClCCN(CCCl)c1ccc(C=Cc2ccncn2)cc1`, the Potency was active: 25.1 µM.
For the molecule `C=C1C(=O)OC2CC(C)C3C=CC(=O)C3(C)C(O)C12` (stereo unspecified), the “activity change, negative = inhibition” value is inactive: -11.3%.
As for `Cc1ccc(OC(=O)N(C)C[C@@H]2OCc3cnnn3CCCC(=O)N([C@H](C)CO)C[C@@H]2C)cc1`, the “activity change, negative = inhibition” value was inactive: -16.6%.
In the case of `Cc1ccccc1N1C(=O)NC(=O)/C(=C/c2ccc(N3CCOCC3)o2)C1=O`, the Potency was active: 25.1 µM.
Same read-out and setting: with `Cc1cccc(N2C(=O)/C(=C/c3ccc(CN(CCC#N)S(C)(=O)=O)o3)C(=O)NC2=S)c1` the figure was active: 25.1 µM.
`COc1cc(CC(C)N)c(OC)cc1I` (stereo unspecified): the “activity change, negative = inhibition” value was inactive: -19%.
Still for that read-out and setting: with `C[C@]12CC[C@@H](O)C[C@@H]1CC[C@@H]1[C@@H]2CC[C@]2(C)C(=O)CC[C@@H]12` the figure was inactive: -6.61%; with `CCC1(OC(=O)c2ccccc2)CC(C)N(C)CC1C` (stereo unspecified), inactive: 41%.
Turning to `COc1cccc2c1C(=O)c1c(O)c3c(c(O)c1C2=O)CC(O)(C(C)=NO)CC3OC1CC(N)C(O)C(C)O1` (stereo unspecified), the Potency was active: 25.1 µM.
For `C[C@@H]1CN([C@H](C)CO)C(=O)c2cc(NC(=O)Nc3ccc(C(F)(F)F)cc3)ccc2O[C@H]1CN(C)S(=O)(=O)c1cccs1`, the “activity change, negative = inhibition” value is inactive: -3.59%.
Consider `CN1[C@@H]2CC(OC(=O)[C@H](CO)c3ccccc3)C[C@H]1[C@@H]1O[C@@H]12` (stereo partly specified), for which the Potency result was “inactive”.
On to `O=c1c2ccccc2nc(/C=C/c2ccccc2O)n1-c1ccc(Br)cc1`, for which the “activity change, negative = inhibition” value was inactive: 27.4%.
Regarding `CC1=NCCc2c1[nH]c1cc(O)ccc21`, the Potency was active: 25.1 µM.
As for `C[C@]12CCC3C(CC[C@H]4C[C@H](O)CC[C@]34C)C1C[C@@H](O)[C@@H]2O` (stereo partly specified), the “activity change, negative = inhibition” value was inactive: -23.8%.
Regarding `C=C1[C@H]2CC[C@H]3[C@]4(C)C[C@H](O[C@H]5O[C@H](CO)[C@@H](OS(=O)(=O)O)[C@H](OS(=O)(=O)O)[C@H]5OC(=O)CC(C)C)C[C@@H](C(=O)O)[C@H]4CC[C@]3(C2)[C@H]1O`, the “activity change, negative = inhibition” value is inactive: -16.4%.
Still for that read-out and setting: with `C[C@H]1C[C@@H](C)C(=O)[C@@H]([C@H](O)CC2CC(=O)NC(=O)C2)C1` the figure was inactive: -7.1%; with `COc1ccc(OC(=O)N(C)C[C@H]2OCc3cnnn3CCCC(=O)N([C@H](C)CO)C[C@@H]2C)cc1`, inactive: -20.7%.
Still for that read-out and setting: as for `O=[N+]([O-])c1ccc(C2[C@H]3C(c4ccccc4)=NC4(CCCC4)N23)cc1` (stereo partly specified), the figure is inactive: 0.512%.
As to `COc1ccc(OC)c(N2C(=O)NC(=O)/C(=C/c3ccc([N+](=O)[O-])s3)C2=O)c1`, the Potency is active: 15.8 µM.
Turning to `CC(C)=CCN1CC[C@@]2(C)c3cc(O)ccc3C[C@@H]1C2C` (stereo partly specified), the “activity change, negative = inhibition” value is inactive: -19.1%.
In the case of `O=[N+]([O-])c1ccc(NCc2ccccc2)c2nonc12`, the Potency was active: 22.4 µM.
As for `COc1ccc(OC(=O)N(C)C[C@H]2OCc3cnnn3CCCC(=O)N([C@@H](C)CO)C[C@H]2C)cc1`, the “activity change, negative = inhibition” value is inactive: -22.9%.
Still for that read-out and setting: with `COC(=O)C1=CO[C@@H](C)[C@H]2CN3CC[C@]4(C(=O)Nc5ccccc54)[C@@H]3C[C@H]12` the figure was inactive: 8.22%; with `C[C@]12CCC3[C@@H](CC[C@@H]4C[C@H](O)CC[C@]34C)[C@@H]1CCC2=O` (stereo partly specified), inactive: -10.7%.
With `Nc1ccc2nonc2c1[N+](=O)[O-]`, the Potency was active: 31.6 µM.
On to `C[C@@H]1CN([C@H](C)CO)C(=O)CCCn2nncc2CO[C@H]1CN(C)C(=O)Oc1cccc2ccccc12`, for which the “activity change, negative = inhibition” value was inactive: -11.1%.
On to `CC(C)OCCCNC(=O)c1c(N)n(CC2CCCO2)c2nc3ccccc3nc12` (stereo unspecified), for which the Potency is active: 28.2 µM.
